± gives the standard deviation of the averaged measurements. Whole data set: some 33,000 sequences, median “E-score (dimensionless, -0.5 to 0.5)” near -0.046, cut for the highest 2% near 0.36. The list shows a part of the results.

The test has as its system T1, SpTbr T-box DNA-binding domain (GST fusion).
T1 sequence: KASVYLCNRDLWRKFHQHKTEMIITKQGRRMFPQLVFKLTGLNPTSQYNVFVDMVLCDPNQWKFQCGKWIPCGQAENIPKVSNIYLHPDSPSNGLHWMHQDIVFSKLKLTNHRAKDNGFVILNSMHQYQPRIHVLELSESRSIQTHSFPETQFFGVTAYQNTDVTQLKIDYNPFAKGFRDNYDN
As to the kind of experiment: PBM E-score of 8-mer (E-score (dimensionless, -0.5 to 0.5)); Tbr is Tbrain of the sea star Patiria miniata (Pm) or the sea urchin Strongylocentrotus purpuratus (Sp); higher = stronger binding preference; most listed sequences are background and not binding sites. The note with it: the construct has about 5 more residues each side. The gist of the method:
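Using the Universal PBM Analysis Suite, every ungapped 8-mer received an enrichment E-score averaged over duplicate arrays. Probe intensities came from double-stranded Universal Agilent oligonucleotide arrays incubated with 200 nM GST-fused Tbr T-box DNA-binding domain in PBS (pH 7.5). That protein was expressed in BL21 E. coli at 20 °C and purified by glutathione affinity chromatography.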
Take AGCGTGAC: the “PBM E-score of 8-mer” value turned out to be 0.3372 ± 0.0013.

In the case of CAGGAACC, the “PBM E-score of 8-mer” value was -0.269 ± 0.046.

In the case of CTCTTCCC, the “PBM E-score of 8-mer” value was -0.0127 ± 0.025.

On to CACGTCAA, for which the “PBM E-score of 8-mer” value was 0.133 ± 0.028.

On to ATATCCAT, for which the “PBM E-score of 8-mer” value was -0.037 ± 0.059.

For the sequence AATTGGTC, the “PBM E-score of 8-mer” value is -0.186 ± 0.00051.

AGATCTAT: the “PBM E-score of 8-mer” value was 0.00585 ± 0.021.

Consider AGGGCCCC, for which the “PBM E-score of 8-mer” value is -0.221 ± 0.043.

For TGAGCGCA, the “PBM E-score of 8-mer” value was determined as 0.00286 ± 0.049.

Regarding CGCCCAGA, the “PBM E-score of 8-mer” value stood at 0.0494 ± 0.0041.

As to ACCGTTTG, the “PBM E-score of 8-mer” value was -0.181 ± 0.039.

AGGGGTCC: the “PBM E-score of 8-mer” value was -0.234 ± 0.0071.

CCTGGCGA: the “PBM E-score of 8-mer” value came out at 0.138 ± 0.064.

With AAAGTTGC, the “PBM E-score of 8-mer” value was 0.13 ± 0.042.

Take TACCGTCA: the “PBM E-score of 8-mer” value stood at 0.178 ± 0.065.

On to TAGCTCAA, for which the “PBM E-score of 8-mer” value is -0.147 ± 0.011.

As for AGGTCTTG, the “PBM E-score of 8-mer” value is -0.136 ± 0.073.

With AAGGGGGA, the “PBM E-score of 8-mer” value was -0.225 ± 0.019.

On to ATTGTATA, for which the “PBM E-score of 8-mer” value is -0.223 ± 0.0029.

TGGCAACA: the “PBM E-score of 8-mer” value came to 0.273 ± 0.022.

For CGGAGGAA, the “PBM E-score of 8-mer” value was -0.347 ± 0.005.

AATCCAGT: the “PBM E-score of 8-mer” value is -0.0778 ± 0.0019.

As to CAACAGGC, the “PBM E-score of 8-mer” value turned out to be 0.0667 ± 0.036.

As to CCTTAGGA, the “PBM E-score of 8-mer” value is -0.116 ± 0.027.

As for TATTTCAA, the “PBM E-score of 8-mer” value is -0.146 ± 0.037.

As for AAGGCGGT, the “PBM E-score of 8-mer” value is -0.0411 ± 0.04.

On to AGGCTAGG, for which the “PBM E-score of 8-mer” value is -0.251 ± 0.018.

Take TTGCACAA: the “PBM E-score of 8-mer” value was -0.0453 ± 0.013.

As for CGATCATC, the “PBM E-score of 8-mer” value is -0.0783 ± 0.0081.

AGCATGTG: the “PBM E-score of 8-mer” value is 0.14 ± 0.11.

Consider CATGATGA, for which the “PBM E-score of 8-mer” value worked out at 0.0198 ± 0.02.

With TACGCGAA, the “PBM E-score of 8-mer” value amounted to 0.159 ± 0.05.

For the sequence CCGCTAAA, the “PBM E-score of 8-mer” value worked out at 0.173 ± 0.051.

On to CCCAGCCC, for which the “PBM E-score of 8-mer” value was -0.135 ± 0.03.

As for AAGTATCG, the “PBM E-score of 8-mer” value is 0.159 ± 0.036.

On to GGATCCAA, for which the “PBM E-score of 8-mer” value is -0.213 ± 0.043.

Turning to GGAACGTA, the “PBM E-score of 8-mer” value is -0.249 ± 0.041.

Regarding GCATTGCC, the “PBM E-score of 8-mer” value was -0.0431 ± 0.042.

As for CGCGGAAG, the “PBM E-score of 8-mer” value stood at 0.123 ± 0.016.

For AATAGTTC, the “PBM E-score of 8-mer” value is -0.0653 ± 0.097.

Turning to ACCGGTGC, the “PBM E-score of 8-mer” value is -0.0976 ± 0.032.

With AATAACTC, the “PBM E-score of 8-mer” value is -0.049 ± 0.03.

With GCATACAA, the “PBM E-score of 8-mer” value was -0.184 ± 0.035.

With AACGGGAA, the “PBM E-score of 8-mer” value is -0.0474 ± 0.074.

For ACGTGTAG, the “PBM E-score of 8-mer” value worked out at 0.133 ± 0.068.

For the sequence ACCACGTG, the “PBM E-score of 8-mer” value amounted to 0.207 ± 0.034.

In the case of GCATCCCC, the “PBM E-score of 8-mer” value was -0.113 ± 0.032.

On to GGACTCTA, for which the “PBM E-score of 8-mer” value was -0.305 ± 0.019.

Take ACGGCGAG: the “PBM E-score of 8-mer” value is -0.0397 ± 0.066.

In the case of ATATCGGG, the “PBM E-score of 8-mer” value was -0.131 ± 0.011.

With AATGAAGT, the “PBM E-score of 8-mer” value was -0.051 ± 0.077.

With TCAAATGA, the “PBM E-score of 8-mer” value was -0.203 ± 0.044.

As for GAATAAAA, the “PBM E-score of 8-mer” value came out at 0.125 ± 0.014.

For the sequence CGTCGGTA, the “PBM E-score of 8-mer” value is -0.0497 ± 0.012.

Take AGTCACCC: the “PBM E-score of 8-mer” value is 0.017 ± 0.11.

Take TCCTAAGA: the “PBM E-score of 8-mer” value was -0.32 ± 0.018.

For the sequence GTTGTAAA, the “PBM E-score of 8-mer” value is 0.123 ± 0.071.

With ATATGATG, the “PBM E-score of 8-mer” value was 0.0387 ± 0.089.

Consider AGGGCAGC, for which the “PBM E-score of 8-mer” value came out at 0.0428 ± 0.043.

Take AAACATGG: the “PBM E-score of 8-mer” value is -0.191 ± 0.014.

With ATGCACAA, the “PBM E-score of 8-mer” value was 0.004 ± 0.018.

As to ACCAGCGC, the “PBM E-score of 8-mer” value amounted to 0.0491 ± 0.099.

Turning to GCTTGATA, the “PBM E-score of 8-mer” value was -0.109 ± 0.002.

In the case of TGTGATAA, the “PBM E-score of 8-mer” value came out at 0.377 ± 0.017.

As to AAGTGCAA, the “PBM E-score of 8-mer” value amounted to 0.323 ± 0.016.

Take TGATTCAA: the “PBM E-score of 8-mer” value is -0.108 ± 0.02.

Consider CACATGGA, for which the “PBM E-score of 8-mer” value came to 0.1438 ± 0.00043.

With ATGAATAC, the “PBM E-score of 8-mer” value was -0.1758 ± 0.0014.

In the case of TCGCCCAA, the “PBM E-score of 8-mer” value was -0.0345 ± 0.031.

Consider CAACCGGG, for which the “PBM E-score of 8-mer” value was -0.103 ± 0.0069.

For the sequence ACAATCGA, the “PBM E-score of 8-mer” value was -0.0224 ± 0.028.

ACGCGCGG: the “PBM E-score of 8-mer” value came to 0.229 ± 0.028.

As to CTCATAGA, the “PBM E-score of 8-mer” value was -0.156 ± 0.053.

As for TATACTGA, the “PBM E-score of 8-mer” value is -0.214 ± 0.063.

Consider ACAAAGTG, for which the “PBM E-score of 8-mer” value was 0.171 ± 0.024.

On to ATGAGGAC, for which the “PBM E-score of 8-mer” value was -0.293 ± 0.013.

As to GCCATCGC, the “PBM E-score of 8-mer” value was found to be 0.0851 ± 0.058.

With AGATAATG, the “PBM E-score of 8-mer” value is -0.132 ± 0.051.

As for CGTTTGCC, the “PBM E-score of 8-mer” value is -0.0967 ± 0.12.

On to ATTATTAA, for which the “PBM E-score of 8-mer” value is 0.0186 ± 0.092.

On to CACGCCGG, for which the “PBM E-score of 8-mer” value worked out at 0.275 ± 0.04.

Take TGAAAAAA: the “PBM E-score of 8-mer” value is -0.0357 ± 0.0053.

For the sequence GCATCACC, the “PBM E-score of 8-mer” value came to 0.301 ± 0.011.

On to TTCCTAAA, for which the “PBM E-score of 8-mer” value is -0.354 ± 0.036.

Regarding GGTGACAA, the “PBM E-score of 8-mer” value is 0.459 ± 0.011.

AGAAGTCC: the “PBM E-score of 8-mer” value is 0.026 ± 0.044.

As for CTGAACGC, the “PBM E-score of 8-mer” value was -0.0762 ± 0.037.

With CAATACGC, the “PBM E-score of 8-mer” value is 0.04 ± 0.079.

On to CCGGCCGG, for which the “PBM E-score of 8-mer” value was -0.268 ± 0.017.

With AGGTGAGG, the “PBM E-score of 8-mer” value was 0.4113 ± 0.0021.

Turning to CCCGGCAA, the “PBM E-score of 8-mer” value turned out to be 0.0221 ± 0.067.

For the sequence GCCCTGCC, the “PBM E-score of 8-mer” value was found to be 0.0738 ± 0.032.

Turning to GCTTGCCA, the “PBM E-score of 8-mer” value was 0.152 ± 0.061.

Regarding AGCGCGCT, the “PBM E-score of 8-mer” value was -0.0253 ± 0.037.

As to TCGGCGAA, the “PBM E-score of 8-mer” value was determined as 0.00517 ± 0.1.

As for AGGTATTA, the “PBM E-score of 8-mer” value came out at 0.00443 ± 0.062.

ACTACTAG: the “PBM E-score of 8-mer” value is -0.188 ± 0.057.

Turning to CATAATCG, the “PBM E-score of 8-mer” value is -0.137 ± 0.021.

Consider ATTAAGTC, for which the “PBM E-score of 8-mer” value is -0.26 ± 0.038.

CTACCGCA: the “PBM E-score of 8-mer” value was 0.0485 ± 0.0024.

On to AAGAGGTG, for which the “PBM E-score of 8-mer” value was 0.407 ± 0.0088.

Regarding ACTCTAAA, the “PBM E-score of 8-mer” value is -0.107 ± 0.062.

In the case of CTGAAGTC, the “PBM E-score of 8-mer” value is -0.284 ± 0.052.

CAAGAACA: the “PBM E-score of 8-mer” value was -0.0231 ± 0.067.

For the sequence ATCTCCGC, the “PBM E-score of 8-mer” value was found to be 0.0734 ± 0.0098.

Consider GGTATGTA, for which the “PBM E-score of 8-mer” value was -0.134 ± 0.079.

On to CCACTTGC, for which the “PBM E-score of 8-mer” value came to 0.192 ± 0.049.

Regarding ACCCATCT, the “PBM E-score of 8-mer” value was -0.0615 ± 0.0012.

For ACGAGGGA, the “PBM E-score of 8-mer” value was -0.0881 ± 0.03.
